{"source": "PubChem BioAssay AID2546", "about": "(National Center for Advancing Translational Sciences (NCATS), 2010)", "note": "In all, about 310,000 compounds went through this assay and about 11,000 (3.5%) were called active. Inconclusive means that the source gave no clear call. Such entries were picked first, then a sample of the others. Calls come from the whole dose curve; as a rule, active = well fitted inhibition curve with a large enough effect; inconclusive = small, poorly fitted or top-dose-only effect, or effect the other way; inactive = flat fitted curve, though single readings scatter. No potency is given beside an inconclusive call; the fits are too rough. Potency is the fitted concentration of half-maximal effect; tags give direction and shape of the fitted curve."}
{"experiment": "VP16 counterscreen qHTS for inhibitors of ROR gamma transcriptional activity;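 note: Gal4-VP16 expression switched on by copper sulfate through the metallothionein promoter; nearly all actives have a fitted effect of over 50% in size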", "details": "Drosophila S2 Gal4-VP16 UAS-luciferase, luminescence, 20 h; series mostly up to 53.6 µM"}
{"smiles": "CC(C)C(=O)NC(=S)N1CCc2ccccc21", "Potency": "inconclusive [inhibitor, single point]"}
{"smiles": "CSc1ccccc1N=CC1=C(O)CC(C)(C)CC1=O", "Potency": "inactive"}
{"smiles": "CCN(Cc1nc2ccccc2c(=O)[nH]1)Cc1nc2cc(OC)c(OC)cc2c(=O)[nH]1", "Potency": "active: 2.24 µM"}
{"smiles": "O=C(Nc1ccccc1Cl)c1ccc(COc2ccc3c(c2)CCC3)cc1", "Potency": "inconclusive [inhibitor, single point]"}
{"smiles": "Cc1cccc(C)c1OC(=O)CCN1C(=O)C2C3C=CC(C4CC34)C2C1=O", "note": "(centres undefined)", "Potency": "inactive"}
{"smiles": "S=C1NCN(Cc2ccco2)CN1c1cccc2ccccc12", "Potency": "inconclusive [inhibitor, single point]"}
{"smiles": "O=C(COC(=O)Cn1c(C(F)(F)F)nc2ccccc21)Nc1ccc2c(c1)OCCO2", "Potency": "inconclusive [inhibitor, single point]"}
{"smiles": "CCNC(=S)Nc1cc(C)ccn1", "Potency": "active: 5.62 µM"}
{"smiles": "COC(=O)/C(=C1\\Oc2ccc(C(C)(C)C)cc2S1)C(F)(F)F", "Potency": "inconclusive [inhibitor, partial curve]"}
{"smiles": "O=C(N=C1SC2CS(=O)(=O)CC2N1Cc1ccccc1Cl)C1CCCO1", "note": "(centres undefined)", "Potency": "inactive"}
{"smiles": "S=c1[nH]nc(-c2ccccc2)n1/N=C/c1cccc(Cl)c1", "Potency": "active: 4.47 µM"}
{"smiles": "COc1cc(OC)cc(C(=O)Nc2ccc(S(=O)(=O)N3CCOCC3)cc2)c1", "Potency": "inactive"}
{"smiles": "CCOC(=O)C1(CCCc2ccccc2)CCN(C(=O)Cc2nonc2C)CC1", "Potency": "inactive"}
{"smiles": "O=C1CCC/C(=N/Nc2ccc(Cl)cc2)C1", "Potency": "inconclusive [inhibitor, single point]"}
{"smiles": "Cc1occc1C(=O)Nc1ccc2ccccc2c1", "Potency": "inconclusive [activator, full curve, poor fit]"}
{"smiles": "N/C(=N\\OC(=O)c1ccccc1Br)c1ccc([N+](=O)[O-])cc1", "Potency": "inconclusive [inhibitor, single point]"}
{"smiles": "O=C(c1ccc(S(=O)(=O)Nc2ccc(F)cc2)cc1)N1CCN(C(=O)c2ccco2)CC1", "Potency": "active: 20 µM"}
{"smiles": "CN1CCN(C(=O)/C(=C/c2cn(S(=O)(=O)N(C)C)c3ccccc23)NC(=O)c2ccccc2)CC1", "Potency": "inactive"}
{"smiles": "CCc1nnc(NC(=O)CSc2ncc(-c3ccccc3)n2CC)s1", "Potency": "inconclusive [inhibitor, single point]"}
{"smiles": "Cc1c(N/N=C(\\C#N)C(=O)c2ccc(Cl)cc2)c(=O)n(-c2ccccc2)n1C", "Potency": "active: 3.55 µM"}
{"smiles": "CN1CCN(c2ncnc3c2[nH]c2ccc(F)cc23)CC1", "Potency": "inactive"}
{"smiles": "Cc1cc2[nH]c3ccccc3c2c(C)n1", "Potency": "inactive"}
{"smiles": "NS(=O)(=O)c1ccc(NC(=S)NCc2ccccc2)cc1", "Potency": "inactive"}
{"smiles": "S=C(c1cn(Cc2ccc(Br)cc2)c2ccccc12)N1CCOCC1", "Potency": "inconclusive [inhibitor, single point]"}
{"smiles": "COc1cccc(-n2cc(CNCc3cn(C)nc3-c3ccccc3F)cn2)c1", "Potency": "inconclusive [inhibitor, single point]"}
{"smiles": "CC(=O)c1cccc(NC(=O)c2cc(C(C)C)on2)c1", "Potency": "inconclusive [inhibitor, partial curve]"}
{"smiles": "OC(c1cc(-c2ccc(C(F)(F)F)cc2)nc(C(F)(F)F)c1)C1CCCCN1", "note": "(centres undefined)", "Potency": "active: 22.4 µM"}
{"smiles": "CC1=C(C(=O)OCc2ccccc2)C(c2cccnc2)n2nnnc2N1", "note": "(centres undefined)", "Potency": "inconclusive [inhibitor, single point]"}
{"smiles": "COc1cccc(/C=C/C(=O)OCC(=O)c2cc(C)n(CC3CCCO3)c2C)c1OC", "note": "(centres undefined)", "Potency": "inconclusive [activator, single point]"}
{"smiles": "Cn1nc(C(=O)Nc2ccc(Br)cc2)cc1C(=O)Nc1ccc(Br)cc1", "Potency": "inactive"}
{"smiles": "CCOc1cccc(/C=N/NC(=S)Nc2cc(S(=O)(=O)N3CCOCC3)ccc2N2CCOCC2)c1O", "Potency": "active: 10 µM"}
{"smiles": "CCN=C1NN=C(c2ccc(C)cc2)CS1", "Potency": "inconclusive [inhibitor, single point]"}
{"smiles": "COC(=O)C1=C(C)NC(=O)NC1c1ccc(-c2ccc(F)cc2)o1", "note": "(centres undefined)", "Potency": "inactive"}
{"smiles": "O=C(Cc1ccccc1)NC(=S)Nc1ccc(OC(F)F)cc1", "Potency": "active: 11.2 µM"}
{"smiles": "CCN(CC)C(=O)CSC(Nc1ccc(F)cc1)=C(C#N)C#N", "Potency": "inactive"}
{"smiles": "FC(F)(F)c1nc2ccccc2[nH]1", "Potency": "inactive"}
{"smiles": "CS(=O)(=O)N(CC(=O)N1CCN(c2ccc(F)cc2)CC1)c1cccc(Cl)c1", "Potency": "inconclusive [inhibitor, single point]"}
{"smiles": "Cc1ccc(/C=N/NC(=O)c2nn(C)cc2Cl)cc1", "Potency": "inconclusive [inhibitor, single point]"}
{"smiles": "Cc1ccc(/C=N/n2c(C3CCCCC3)n[nH]c2=S)o1", "Potency": "inconclusive [inhibitor, single point]"}
{"smiles": "COc1ccc(-c2nnc(SCc3nnc(-c4ccc(Cl)cc4)o3)n2-c2ccccc2)cc1", "Potency": "inconclusive [inhibitor, single point]"}
{"smiles": "O=C(COn1nnc2ccc(C(F)(F)F)cc21)Nc1nnc(-c2ccccc2)o1", "Potency": "active: 4.47 µM"}
{"smiles": "CCc1ccc(NC(=S)NNC(=O)c2ccccc2OC(F)F)cc1", "Potency": "inconclusive [inhibitor, single point]"}
{"smiles": "CC(CCc1ccc(O)cc1)NC(c1ccccc1)c1ccc(Cl)cc1", "note": "(centres undefined)", "Potency": "inconclusive [inhibitor, single point]"}
{"smiles": "CC(Oc1ccc2ccccc2c1)C(=O)NNC(=S)NC(=O)c1ccco1", "note": "(centres undefined)", "Potency": "inconclusive [inhibitor, single point]"}
{"smiles": "O=C(Nc1ccccc1)C(Cl)C(=O)c1ccccc1", "note": "(centres undefined)", "Potency": "inconclusive [inhibitor, single point]"}
{"smiles": "Cc1ccc(C(=O)Nc2nccs2)cc1", "Potency": "inactive"}
{"smiles": "Cc1cccc(NC(=O)c2nc[nH]c2C(=O)N[C@@H](Cc2ccccc2)C(=O)OCc2ccccc2)c1", "Potency": "active: 10 µM"}
{"smiles": "COc1ccccc1CC(=O)Nc1sc2c(c1C(N)=O)CCCC2", "Potency": "inactive"}
{"smiles": "O=C(Nc1ccccc1N1CCN(C(=O)c2ccc(Cl)cc2)CC1)c1ccc([N+](=O)[O-])o1", "Potency": "inconclusive [inhibitor, single point]"}
